# In the supplement of paper PMC8728848:
# The list shows a part of the results.
# B1: Gal 7 (Homo sapiens) (protein)
# chain: MSNVPHKSSLPEGIRPGTVLRIRGLVPPNASRFHVNLLCGEEGGSDAALHFNPRLDTSEVVFNSKEGGSWGREERGPGVPFGRGQPFEVLIIASDDGFKAVVGDAQYHHFRHRLPLARVRLVEVGGDVQLDSVRIF
# Key:
# Experiment in all cases: glycan array binding signal (z-score within array); higher = stronger binding
# Details in all cases: glycan notation: IUPAC condensed, linker removed
# [1] = target: Gal(b1-4)GlcNAc(b1-3)Gal(b1-4)Glc
# Method in brief: (§1)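 The Consortium for Functional Glycomics database supplied 3228 glycan arrays, of which those lacking an available protein sequence were dropped. The binding signal, a within-array Z-score, was averaged across arrays of the same protein sequence and across linkers. Negative scores can be read as non-binding.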
# [2] = target: Gal(b1-4)GlcNAc(b1-3)Gal(b1-4)GlcNAc
# Method in brief: as §1
# [3] = target: Gal(b1-4)GlcNAc(b1-3)Gal(b1-4)GlcNAc(b1-2)Man(a1-3)[Gal(b1-4)GlcNAc(b1-3)Gal(b1-4)GlcNAc(b1-2)Man(a1-6)]Man(b1-4)GlcNAc(b1-4)GlcNAc
# Method in brief: as §1
# [4] = target: Gal(b1-4)GlcNAc(b1-3)Gal(b1-4)GlcNAc(b1-2)Man(a1-3)[Gal(b1-4)GlcNAc(b1-3)Gal(b1-4)GlcNAc(b1-2)Man(a1-6)]Man(b1-4)GlcNAc(b1-4)[Fuc(a1-6)]GlcNAc
# Method in brief: as §1
# [5] = target: Gal(b1-4)GlcNAc(b1-3)Gal(b1-4)GlcNAc(b1-2)[Gal(b1-4)GlcNAc(b1-3)Gal(b1-4)GlcNAc(b1-6)]Man(a1-6)[Gal(b1-4)GlcNAc(b1-3)Gal(b1-4)GlcNAc(b1-2)Man(a1-3)]Man(b1-4)GlcNAc(b1-4)GlcNAc
# Method in brief: as §1
# [6] = target: Gal(b1-4)GlcNAc(b1-3)Gal(b1-4)GlcNAc(b1-2)[Gal(b1-4)GlcNAc(b1-3)Gal(b1-4)GlcNAc(b1-6)]Man(a1-6)[Gal(b1-4)GlcNAc(b1-3)Gal(b1-4)GlcNAc(b1-2)Man(a1-3)]Man(b1-4)GlcNAc(b1-4)[Fuc(a1-6)]GlcNAc
# Method in brief: as §1
# [7] = target: Gal(b1-4)GlcNAc(b1-3)Gal(b1-4)GlcNAc(b1-3)Gal(b1-4)GlcNAc
# Method in brief: as §1
# [8] = target: Gal(b1-4)GlcNAc(b1-3)Gal(b1-4)GlcNAc(b1-3)Gal(b1-4)GlcNAc(b1-2)Man(a1-3)[Gal(b1-4)GlcNAc(b1-3)Gal(b1-4)GlcNAc(b1-3)Gal(b1-4)GlcNAc(b1-2)Man(a1-6)]Man(b1-4)GlcNAc(b1-4)GlcNAc
# Method in brief: as §1
# [9] = target: Gal(b1-4)GlcNAc(b1-3)Gal(b1-4)GlcNAc(b1-3)Gal(b1-4)GlcNAc(b1-2)Man(a1-3)[Gal(b1-4)GlcNAc(b1-3)Gal(b1-4)GlcNAc(b1-3)Gal(b1-4)GlcNAc(b1-2)Man(a1-6)]Man(b1-4)GlcNAc(b1-4)[Fuc(a1-6)]GlcNAc
# Method in brief: as §1
# [10] = target: Gal(b1-4)GlcNAc(b1-3)Gal(b1-4)GlcNAc(b1-3)Gal(b1-4)GlcNAc(b1-2)[Gal(b1-4)GlcNAc(b1-3)Gal(b1-4)GlcNAc(b1-3)Gal(b1-4)GlcNAc(b1-6)]Man(a1-6)[Gal(b1-4)GlcNAc(b1-3)Gal(b1-4)GlcNAc(b1-3)Gal(b1-4)GlcNAc(b1-2)Man(a1-3)]Man(b1-4)GlcNAc(b1-4)[Fuc(a1-6)]GlcNAc
# Method in brief: as §1
# [11] = target: Gal(b1-4)GlcNAc(b1-3)Gal(b1-4)GlcNAc(b1-3)Gal(b1-4)GlcNAc(b1-3)Gal(b1-4)GlcNAc(b1-2)Man(a1-3)[Gal(b1-4)GlcNAc(b1-3)Gal(b1-4)GlcNAc(b1-3)Gal(b1-4)GlcNAc(b1-3)Gal(b1-4)GlcNAc(b1-2)Man(a1-6)]Man(b1-4)GlcNAc(b1-4)GlcNAc
# Method in brief: as §1
# [12] = target: Gal(b1-4)GlcNAc(b1-3)Gal(b1-4)GlcNAc(b1-3)Gal(b1-4)GlcNAc(b1-3)Gal(b1-4)GlcNAc(b1-2)Man(a1-3)[Gal(b1-4)GlcNAc(b1-3)Gal(b1-4)GlcNAc(b1-3)Gal(b1-4)GlcNAc(b1-3)Gal(b1-4)GlcNAc(b1-2)Man(a1-6)]Man(b1-4)GlcNAc(b1-4)[Fuc(a1-6)]GlcNAc
# Method in brief: as §1
# [13] = target: Gal(b1-4)GlcNAc(b1-3)Gal(b1-4)GlcNAc(b1-3)Gal(b1-4)GlcNAc(b1-3)Gal(b1-4)GlcNAc(b1-2)[Gal(b1-4)GlcNAc(b1-3)Gal(b1-4)GlcNAc(b1-3)Gal(b1-4)GlcNAc(b1-3)Gal(b1-4)GlcNAc(b1-6)]Man(a1-6)[Gal(b1-4)GlcNAc(b1-3)Gal(b1-4)GlcNAc(b1-3)Gal(b1-4)GlcNAc(b1-3)Gal(b1-4)GlcNAc(b1-2)Man(a1-3)]Man(b1-4)GlcNAc(b1-4)[Fuc(a1-6)]GlcNAc
# Method in brief: as §1
# [14] = target: Gal(b1-4)GlcNAc(b1-3)Gal(b1-4)GlcNAc(b1-3)Gal(b1-4)GlcNAc(b1-3)Gal(b1-4)GlcNAc(b1-3)Gal(b1-4)GlcNAc(b1-2)Man(a1-3)[Gal(b1-4)GlcNAc(b1-3)Gal(b1-4)GlcNAc(b1-3)Gal(b1-4)GlcNAc(b1-3)Gal(b1-4)GlcNAc(b1-3)Gal(b1-4)GlcNAc(b1-2)Man(a1-6)]Man(b1-4)GlcNAc(b1-4)GlcNAc
# Method in brief: as §1
# [15] = target: Gal(b1-4)GlcNAc(b1-3)Gal(b1-4)GlcNAc(b1-3)Gal(b1-4)GlcNAc(b1-3)Gal(b1-4)GlcNAc(b1-3)Gal(b1-4)GlcNAc(b1-2)Man(a1-3)[Gal(b1-4)GlcNAc(b1-3)Gal(b1-4)GlcNAc(b1-3)Gal(b1-4)GlcNAc(b1-3)Gal(b1-4)GlcNAc(b1-3)Gal(b1-4)GlcNAc(b1-2)Man(a1-6)]Man(b1-4)GlcNAc(b1-4)[Fuc(a1-6)]GlcNAc
# Method in brief: as §1
# [16] = target: Gal(b1-4)GlcNAc(b1-3)Gal(b1-4)GlcNAc(b1-3)Gal(b1-4)GlcNAc(b1-3)Gal(b1-4)GlcNAc(b1-3)Gal(b1-4)GlcNAc(b1-2)[Gal(b1-4)GlcNAc(b1-3)Gal(b1-4)GlcNAc(b1-3)Gal(b1-4)GlcNAc(b1-3)Gal(b1-4)GlcNAc(b1-3)Gal(b1-4)GlcNAc(b1-6)]Man(a1-6)[Gal(b1-4)GlcNAc(b1-3)Gal(b1-4)GlcNAc(b1-3)Gal(b1-4)GlcNAc(b1-3)Gal(b1-4)GlcNAc(b1-3)Gal(b1-4)GlcNAc(b1-2)Man(a1-3)]Man(b1-4)GlcNAc(b1-4)[Fuc(a1-6)]GlcNAc
# Method in brief: as §1
# [17] = target: Gal(b1-4)GlcNAc(b1-3)Gal(b1-4)GlcNAc(b1-3)Gal(b1-4)GlcNAc(b1-3)Gal(b1-4)GlcNAc(b1-3)Gal(b1-4)GlcNAc(b1-3)Gal(b1-4)GlcNAc(b1-2)Man(a1-3)[Gal(b1-4)GlcNAc(b1-3)Gal(b1-4)GlcNAc(b1-3)Gal(b1-4)GlcNAc(b1-3)Gal(b1-4)GlcNAc(b1-3)Gal(b1-4)GlcNAc(b1-3)Gal(b1-4)GlcNAc(b1-2)Man(a1-6)]Man(b1-4)GlcNAc(b1-4)GlcNAc
# Method in brief: as §1
# [18] = target: Gal(b1-4)GlcNAc(b1-3)Gal(b1-4)GlcNAc(b1-3)GalNAc
# Method in brief: as §1
# [19] = target: Gal(b1-4)GlcNAc(b1-3)Gal(b1-4)GlcNAc(b1-3)[Gal(b1-4)GlcNAc(b1-3)Gal(b1-4)GlcNAc(b1-6)]GalNAc
# Method in brief: as §1
# [20] = target: Gal(b1-4)GlcNAc(b1-3)Gal(b1-4)GlcNAc(b1-6)[Gal(b1-3)]GalNAc
# Method in brief: as §1
# [21] = target: Gal(b1-4)GlcNAc(b1-3)Gal(b1-4)[Fuc(a1-3)GlcNAc(b1-6)]Gal(b1-4)Glc
# Method in brief: as §1
# [22] = target: Gal(b1-4)GlcNAc(b1-3)Gal(b1-4)[Fuc(a1-3)]GlcNAc(b1-3)Gal(b1-4)[Fuc(a1-3)]GlcNAc
# Method in brief: as §1
# [23] = target: Gal(b1-4)GlcNAc(b1-3)GalNAc
# Method in brief: as §1
# [24] = target: Gal(b1-4)GlcNAc(b1-3)[Fuc(a1-3)GlcNAc(b1-6)]Gal(b1-4)Glc
# Method in brief: as §1
# [25] = target: Gal(b1-4)GlcNAc(b1-3)[Gal(b1-4)GlcNAc(b1-6)]Gal(b1-4)GlcNAc
# Method in brief: as §1
# [26] = target: Gal(b1-4)GlcNAc(b1-3)[Gal(b1-4)GlcNAc(b1-6)]GalNAc
# Method in brief: as §1
# [27] = target: Gal(b1-4)GlcNAc(b1-3)[GlcNAc(b1-6)]Gal(b1-4)GlcNAc
# Method in brief: as §1
# [28] = target: Gal(b1-4)GlcNAc(b1-6)Gal(b1-4)GlcNAc
# Method in brief: as §1
# [29] = target: Gal(b1-4)GlcNAc(b1-6)GalNAc
# Method in brief: as §1
# [30] = target: Gal(b1-4)GlcNAc(b1-6)[Gal(b1-3)]GalNAc
# Method in brief: as §1
# [31] = target: Gal(b1-4)GlcNAc(b1-6)[Gal(b1-3)]GlcNAc
# Method in brief: as §1
# [32] = target: Gal(b1-4)GlcNAc(b1-6)[Gal(b1-4)GlcNAc(b1-3)]GalNAc
# Method in brief: as §1
# [33] = target: Gal(b1-4)GlcNAc6P
# Method in brief: as §1
# [34] = target: Gal(b1-6)Gal
# Method in brief: as §1
# [35] = target: Gal3S(b1-3)GalNAc
# Method in brief: as §1
# [36] = target: Gal3S(b1-3)GlcNAc
# Method in brief: as §1
# [37] = target: Gal3S(b1-3)[Fuc(a1-4)]GlcNAc
# Method in brief: as §1
# [38] = target: Gal3S(b1-4)Glc
# Method in brief: as §1
# [39] = target: Gal3S(b1-4)Glc6S
# Method in brief: as §1
# [40] = target: Gal3S(b1-4)GlcNAc
# Method in brief: as §1
# [41] = target: Gal3S(b1-4)GlcNAc6S
# Method in brief: as §1
# [42] = target: Gal3S(b1-4)[Fuc(a1-3)]Glc
# Method in brief: as §1
# [43] = target: Gal3S(b1-4)[Fuc(a1-3)]Glc6S
# Method in brief: as §1
# [44] = target: Gal3S(b1-4)[Fuc(a1-3)]GlcNAc
# Method in brief: as §1
# [45] = target: Gal3S(b1-4)[Fuc(a1-3)]GlcNAc6S
# Method in brief: as §1
binder,measurement,setting,value
B1,glycan array binding signal (z-score),[1],0.958
same,glycan array binding signal (z-score),[2],0.739
same,glycan array binding signal (z-score),[3],2.23
same,glycan array binding signal (z-score),[4],3.36
same,glycan array binding signal (z-score),[5],-0.215
same,glycan array binding signal (z-score),[6],4.27
same,glycan array binding signal (z-score),[7],0.945
same,glycan array binding signal (z-score),[8],3.58
same,glycan array binding signal (z-score),[9],4.99
same,glycan array binding signal (z-score),[10],4.93
same,glycan array binding signal (z-score),[11],4.71
same,glycan array binding signal (z-score),[12],4.78
same,glycan array binding signal (z-score),[13],5.2
same,glycan array binding signal (z-score),[14],4.95
same,glycan array binding signal (z-score),[15],4.93
same,glycan array binding signal (z-score),[16],5.14
same,glycan array binding signal (z-score),[17],3.77
same,glycan array binding signal (z-score),[18],-0.127
same,glycan array binding signal (z-score),[19],0.482
same,glycan array binding signal (z-score),[20],-0.233
same,glycan array binding signal (z-score),[21],-0.338
same,glycan array binding signal (z-score),[22],0.16
same,glycan array binding signal (z-score),[23],-0.323
same,glycan array binding signal (z-score),[24],-0.258
same,glycan array binding signal (z-score),[25],-0.337
same,glycan array binding signal (z-score),[26],0.217
same,glycan array binding signal (z-score),[27],-0.294
same,glycan array binding signal (z-score),[28],-0.304
same,glycan array binding signal (z-score),[29],-0.153
same,glycan array binding signal (z-score),[30],-0.165
same,glycan array binding signal (z-score),[31],0.225
same,glycan array binding signal (z-score),[32],-0.3
same,glycan array binding signal (z-score),[33],-0.226
same,glycan array binding signal (z-score),[34],-0.233
same,glycan array binding signal (z-score),[35],0.538
same,glycan array binding signal (z-score),[36],0.499
same,glycan array binding signal (z-score),[37],-0.087
same,glycan array binding signal (z-score),[38],0.699
same,glycan array binding signal (z-score),[39],2.04
same,glycan array binding signal (z-score),[40],0.651
same,glycan array binding signal (z-score),[41],0.579
same,glycan array binding signal (z-score),[42],0.042
same,glycan array binding signal (z-score),[43],0.268
same,glycan array binding signal (z-score),[44],-0.312
same,glycan array binding signal (z-score),[45],-0.296
